Experimental data: article PMC6857912
These are yes or no findings as the source states them, for the method shown. Binding seen in cells or lysates may run through a third protein. Some results given as binding are weak or reduced against the parent protein; the word gives no strength. For part of these data: Where a sequence is shown, tags or fusion partners need not be part of it.

Protein sequences, listed by entry. Tags and fused reporters are not part of them. Lines headed by an entry give the natural chain unless they say otherwise; changes in a name come on top.
UniProt Q5SXA9: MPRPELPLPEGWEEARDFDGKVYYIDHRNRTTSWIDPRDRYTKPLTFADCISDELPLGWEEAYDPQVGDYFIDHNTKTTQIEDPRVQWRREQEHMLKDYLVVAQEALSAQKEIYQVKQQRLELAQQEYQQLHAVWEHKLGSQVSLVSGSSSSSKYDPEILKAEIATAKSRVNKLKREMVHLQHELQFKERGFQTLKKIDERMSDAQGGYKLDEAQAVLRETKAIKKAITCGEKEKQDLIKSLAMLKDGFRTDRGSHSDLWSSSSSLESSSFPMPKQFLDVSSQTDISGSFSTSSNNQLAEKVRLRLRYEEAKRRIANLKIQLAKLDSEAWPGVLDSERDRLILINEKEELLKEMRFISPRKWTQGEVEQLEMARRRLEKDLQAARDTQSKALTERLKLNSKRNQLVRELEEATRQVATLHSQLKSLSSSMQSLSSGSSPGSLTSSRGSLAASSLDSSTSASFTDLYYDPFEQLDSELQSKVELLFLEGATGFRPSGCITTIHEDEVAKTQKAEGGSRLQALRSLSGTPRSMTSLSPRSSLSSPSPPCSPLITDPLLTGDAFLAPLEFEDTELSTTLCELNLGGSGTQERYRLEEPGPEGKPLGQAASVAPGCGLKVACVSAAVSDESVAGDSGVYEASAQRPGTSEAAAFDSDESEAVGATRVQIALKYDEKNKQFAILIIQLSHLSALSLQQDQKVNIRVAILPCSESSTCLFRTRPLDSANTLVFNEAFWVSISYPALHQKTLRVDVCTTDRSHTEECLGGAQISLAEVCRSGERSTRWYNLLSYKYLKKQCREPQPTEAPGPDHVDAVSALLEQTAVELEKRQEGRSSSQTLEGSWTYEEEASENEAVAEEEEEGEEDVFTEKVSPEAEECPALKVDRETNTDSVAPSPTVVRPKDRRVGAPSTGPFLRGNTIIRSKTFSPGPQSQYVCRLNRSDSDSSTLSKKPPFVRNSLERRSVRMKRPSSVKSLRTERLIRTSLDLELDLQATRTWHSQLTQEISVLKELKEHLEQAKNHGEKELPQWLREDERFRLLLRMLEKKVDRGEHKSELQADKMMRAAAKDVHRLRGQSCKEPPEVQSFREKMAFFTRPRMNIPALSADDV

Columns and labels:
[1] = target: FLAG-CAMDI (Coiled-coil protein Associated with Myosin II and DISC1) (mouse) (UniProt E9Q8Q6); experiment: co-IP; tagged proteins co-transfected in cells (SH-SY5Y named for Fig 5A,B); NP-40 lysis buffer (20 mM Tris-HCl pH 7.2, 2 mM EDTA, 0.5% NP-40, 8% sucrose, 80 mM dithiothreitol); protein A- or G-sepharose; immunoblot
[2] = target: endogenous KIBRA (mouse brain) (mouse (endogenous in mouse brain)) (UniProt Q5SXA9); experiment: co-IP; endogenous proteins, P56 mouse brain lysate, WT and CAMDI KO mice; IP-IB with the indicated antibodies
DsRed-KIBRA (mouse) = DsRed-KIBRA (mouse) (UniProt Q5SXA9); experiment: co-IP; tagged proteins co-transfected in cells (SH-SY5Y named for Fig 5A,B); NP-40 lysis buffer (20 mM Tris-HCl pH 7.2, 2 mM EDTA, 0.5% NP-40, 8% sucrose, 80 mM dithiothreitol); protein A- or G-sepharose; immunoblot

Row | Molecule | binding [1] | other results
1 | KIBRA-HA (kidney and brain expressed protein), full (from UniProt Q5SXA9 1-1104) | binds | 
2 | endogenous CAMDI (mouse brain) (from UniProt E9Q8Q6 1-1531) |  | binding [2]: binds
3 | KIBRA-HA deletion mutant (990-1,104 amino acids deletion) (from UniProt Q5SXA9 1-989) (domain or fragment) | no binding | 
4 | HA-tagged CAMDI first coiled-coil domain (CC1, 576-706) (domain or fragment, UniProt E9Q8Q6 576-706) EQLQSLKEFYLTEIPWKDEDDAVVKCQSNSAERKWQLFLKKSFLTQDLSLEFLNLINMAKENEILNVKNEMHIMENIMEKQTNGREELSHLRVAWYLKAIEGKPAREQWEMFKEKLTKTTHSVKLLHEVLM |  | binding (DsRed-KIBRA (mouse)): binds
5 | EGFP-Rab11a wild type (protein, UniProt P62494 1-216) MGTRDDEYDYLFKVVLIGDSGVGKSNLLSRFTRNEFNLESKSTIGVEFATRSIQVDGKTIKAQIWDTAGQERYRAITSAYYRGAVGALLVYDIAKHLTYENVERWLKELRDHADSNIVIMLVGNKSDLRHLRAVPTDEARAFAEKNGLSFIETSALDSTNVEAAFQTILTEIYRIVSQKQMSDRRENDMSPSNNVVPIHVPPTTENKPKVQCCQNI | binds | 
6 | EGFP-Rab11a dominant active (Q70L) (protein, UniProt P62494 1-216) MGTRDDEYDYLFKVVLIGDSGVGKSNLLSRFTRNEFNLESKSTIGVEFATRSIQVDGKTIKAQIWDTAGLERYRAITSAYYRGAVGALLVYDIAKHLTYENVERWLKELRDHADSNIVIMLVGNKSDLRHLRAVPTDEARAFAEKNGLSFIETSALDSTNVEAAFQTILTEIYRIVSQKQMSDRRENDMSPSNNVVPIHVPPTTENKPKVQCCQNI | binds | 
